{
  "source": "PubChem BioAssay AID602310",
  "about": "(National Center for Advancing Translational Sciences (NCATS), 2012)",
  "note": "Hit rate of the full screen: of about 410,000 compounds, about 310 (0.076%) were called active. Inconclusive results, whose numbers are uncertain, are shown with a selection of clear calls. The call rests on the fitted dose curve; in most records, active means well fitted curve in the direction sought with a large enough effect; inconclusive means small, poorly fitted or top-dose-only effect; inactive means flat fitted curve, though single readings scatter. A potency beside an inconclusive call is a rough fit, not a confirmed value. On the % scale 0 is the no-effect control and ±100 the full control effect; potency means the concentration at half of the fitted maximal effect; tags describe the fitted curve by direction and shape.",
  "data": [
    {"molecular_target": "DNA dC->dU-editing enzyme APOBEC-3G (Homo sapiens) (UniProt Q9HC16)", "sequence (Q9HC16 whole entry, looked up)": "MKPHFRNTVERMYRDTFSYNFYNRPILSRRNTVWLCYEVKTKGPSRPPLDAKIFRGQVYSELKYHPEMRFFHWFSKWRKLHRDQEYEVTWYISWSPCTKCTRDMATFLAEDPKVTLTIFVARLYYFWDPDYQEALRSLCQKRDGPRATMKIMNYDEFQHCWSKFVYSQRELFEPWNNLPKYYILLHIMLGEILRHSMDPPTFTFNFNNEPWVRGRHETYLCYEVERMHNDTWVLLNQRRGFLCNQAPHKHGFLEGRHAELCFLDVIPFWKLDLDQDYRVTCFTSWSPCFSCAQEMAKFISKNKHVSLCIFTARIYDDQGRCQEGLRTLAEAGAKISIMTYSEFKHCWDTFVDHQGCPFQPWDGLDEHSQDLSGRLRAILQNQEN", "experiment": "qHTS for Inhibitors of Vif-A3G Interactions: qHTS; further: nearly all actives have a fitted effect of over 60% in size;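 on activity, negative = active: hits raise eYFP signal because A3G escapes Vif-driven loss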", "conditions": "HeLa A3G-eYFP + Vif (tagged APOBEC3G with the HIV-1 protein that degrades it), YFP fluorescence, overnight; series mostly up to 46.1 µM; activity, negative = active: at the top concentration", "in_short": "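Read-out is eYFP fluorescence (Ex 488/Em 500-530) from Vif-expressing HeLa A3G-eYFP cells; more signal means A3G escaped Vif-mediated degradation. Cells plated overnight, compound pinned in, incubated overnight at 37 deg C.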", "values": [
      {"smiles": "COC(=O)c1c(N2C(=O)CC(Sc3ccccc3C(=O)O)C2=O)sc(C)c1C", "note": "(centres undefined)", "activity, negative = active": "inactive: -3.25%"},
      {"smiles": "O=C(NCc1ccc(F)cc1)c1cccc2c1C(=O)c1ccc(N3CCC(Cc4ccccc4)CC3)cc1S2(=O)=O", "Potency": "inconclusive: 11.2 µM [inhibitor, partial curve]"},
      {"smiles": "Cc1cccc(N2C(=O)CC(Sc3nccc(C)n3)C2=O)c1", "note": "(centres undefined)", "activity, negative = active": "inactive: 0.141%"},
      {"smiles": "O=C(N/N=C/c1ccccc1)c1sccc1OCc1ccc(F)cc1", "Potency": "inconclusive: 12.6 µM [inhibitor, single point]"},
      {"smiles": "COc1cccc(CNC(=O)COC(=O)c2ccc(-c3ccc(O)cc3)cc2)c1", "Potency": "inconclusive: 20 µM [inhibitor, single point]"},
      {"smiles": "CC(=O)Nc1ccc(Sc2ccc([N+](=O)[O-])o2)cc1", "Potency": "inconclusive: 3.98 µM [inhibitor, single point]"},
      {"smiles": "Cc1ccc(CN=C(N)Nc2nc(C)cc(C)n2)cc1", "Potency": "inconclusive: 10 µM [inhibitor, partial curve]"},
      {"smiles": "Cn1c(NCCc2ccccc2)cc(=O)n(C)c1=O", "activity, negative = active": "inactive: 0.75%"},
      {"smiles": "O=C(/C=C/c1cccc(Cl)c1)c1ccc([N+](=O)[O-])o1", "Potency": "inconclusive: 3.16 µM [inhibitor, full curve, poor fit]"},
      {"smiles": "COc1ccc(/C=N/NC(=O)CCn2cnc(-c3ccccc3)c2-c2ccccc2)cc1", "Potency": "inconclusive: 0.891 µM [inhibitor, full curve, poor fit]"},
      {"smiles": "COc1cccc(-c2ccc(NC(=O)C3CCCN(Cc4ccco4)C3)cc2)c1", "note": "(centres undefined)", "activity, negative = active": "inactive: 0.104%"},
      {"smiles": "Cc1cccc(NC(=O)c2cc(=O)c3ccccc3o2)n1", "activity, negative = active": "inactive: -0.768%"},
      {"smiles": "CCOc1ccc(C(=O)/C=C/c2cc(OC)c(OC)c(OC)c2)cc1", "activity, negative = active": "inactive: -24.6%"},
      {"smiles": "Cc1ccc(C)c(Cn2c(=O)c3c(nc4n3CCN4c3ccc(F)cc3)n(C)c2=O)c1", "Potency": "inconclusive: 3.16 µM [inhibitor, single point]"},
      {"smiles": "CCS(=O)(=O)N1CCc2cc(C(=O)N3CCN(c4cccc(C(F)(F)F)c4)CC3)ccc21", "Potency": "active: 12.6 µM"},
      {"smiles": "COc1ccc2ccccc2c1/C=N/NC(=O)c1cc(C)[nH]n1", "Potency": "inconclusive: 22.4 µM [inhibitor, single point]"},
      {"smiles": "COc1cc(OC)c(OC)cc1/C=C1\\C=Cc2ccccc21", "activity, negative = active": "inactive: -27.6%"},
      {"smiles": "C[C@H](CO)N1C[C@H](C)[C@@H](CN(C)S(=O)(=O)c2cccc(F)c2)OCc2cn(nn2)CCCC1=O", "activity, negative = active": "inactive: -3.61%"},
      {"smiles": "CC(=O)NC1C(=O)N(CCN2CCOCC2)c2ccc(C)cc21", "note": "(centres undefined)", "activity, negative = active": "inactive: -10.8%"},
      {"smiles": "COc1ccc2ccc(O)c(CN(C)CC(=O)Nc3ccccc3C(F)(F)F)c2c1", "activity, negative = active": "inactive: -8.65%"},
      {"smiles": "CN(C)c1ccc(CNC(=O)C2Cc3c(-c4cccc(C(N)=O)c4)ccnc3O2)cc1", "note": "(centres undefined)", "Potency": "inconclusive: 22.4 µM [inhibitor, single point]"},
      {"smiles": "COc1cccc2sc(N(CCCN(C)C)C(=O)CCS(=O)(=O)c3ccccc3)nc12", "Potency": "inconclusive: 14.1 µM [inhibitor, single point]"},
      {"smiles": "C=C1C=C(C)n2ncc(C(=O)Nc3cccc(C(=O)Nc4cccc(C(F)(F)F)c4)c3)c2N1", "activity, negative = active": "inactive: 0.51%"},
      {"smiles": "CC(C)c1ccc2c(c1)C1Cc3ccccc3C1N2", "note": "(centres undefined)", "Potency": "inconclusive: 11.2 µM [inhibitor, single point]"},
      {"smiles": "Cc1cc(NC(=O)N2CC=C(c3c[nH]c4ccccc34)CC2)ccc1Br", "Potency": "inconclusive: 25.1 µM [inhibitor, single point]"},
      {"smiles": "COC(CN(C(=O)CCl)C(C(=O)NC1CCCCC1)c1ccc(C)cc1)OC", "note": "(centres undefined)", "activity, negative = active": "inactive: -1.09%"},
      {"smiles": "Cc1ccsc1/C=N/NC(=O)c1ccc2ccccc2c1", "Potency": "inconclusive: 10 µM [inhibitor, partial curve, poor fit]"},
      {"smiles": "CCCS(=O)(=O)c1ncc(Cl)c(C(=O)N(Cc2ccccc2)Cc2ccco2)n1", "Potency": "inconclusive: 10 µM [inhibitor, partial curve, poor fit]"},
      {"smiles": "CCCC(=O)NC(c1ccccc1)c1ccc2cccnc2c1O", "note": "(centres undefined)", "Potency": "inconclusive: 12.6 µM [inhibitor, single point]"},
      {"smiles": "O=C(NCc1ccc2c(c1)CCN2C(=O)c1ccc(F)cc1)c1ccc(Br)o1", "Potency": "inconclusive: 3.55 µM [inhibitor, full curve, poor fit]"},
      {"smiles": "COc1cc(OC)cc(C(=O)Nc2cc3nn(-c4ccccc4)nc3cc2Cl)c1", "Potency": "inconclusive: 7.08 µM [inhibitor, partial curve, poor fit]"},
      {"smiles": "C(=C\\c1ccccc1)/C=N/Nc1nc2ccccc2[nH]1", "Potency": "inconclusive: 3.55 µM [inhibitor, partial curve, poor fit]"},
      {"smiles": "COc1cc(/C=C/C(=O)c2ccc(NS(=O)(=O)c3ccc(C)cc3)cc2)cc(OC)c1O", "Potency": "inconclusive: 22.4 µM [inhibitor, single point]"},
      {"smiles": "COc1ccccc1NC(=O)c1sc2nc(C)c(C(=O)Nc3ccc(Cl)cc3)c(-c3ccc(Br)cc3)c2c1N", "Potency": "inconclusive: 25.1 µM [inhibitor, single point]"},
      {"smiles": "O=C(OCn1nnc2ccccc2c1=O)C1CCCCC1", "activity, negative = active": "inactive: -0.401%"},
      {"smiles": "CCOc1ccccc1CNC(=O)C1CCN(c2nnc(C)c3c(C)n(-c4ccc(C)cc4)nc23)CC1", "Potency": "inconclusive: 22.4 µM [inhibitor, single point]"},
      {"smiles": "COc1cccc(/C=N/Nc2nc3ccccc3[nH]2)c1O", "Potency": "inconclusive: 3.55 µM [inhibitor, partial curve, poor fit]"},
      {"smiles": "CC(=O)c1c(C)[nH]c(C(=O)OCC(=O)Nc2cc(C(F)(F)F)ccc2N2CCOCC2)c1C", "Potency": "inconclusive: 12.6 µM [inhibitor, single point]"},
      {"smiles": "O=C(COC(=O)c1ccccc1C(=O)c1ccc(Cl)c([N+](=O)[O-])c1)NC1CC1", "Potency": "inconclusive: 25.1 µM [inhibitor, single point]"},
      {"smiles": "Cc1c(C2=CCN(S(=O)(=O)c3ccc(Cl)cc3)CC2)c2ccccc2n1CC(=O)N1CCCC1", "activity, negative = active": "inactive: 0.9%"},
      {"smiles": "CN1C(=O)/C(=C\\c2ccc(OC(=O)c3ccco3)cc2)SC1=S", "activity, negative = active": "inactive: -3.33%"},
      {"smiles": "O=C(NCCc1ccccc1)c1c(O)c2ccccc2[nH]c1=O", "activity, negative = active": "inactive: 1.68%"},
      {"smiles": "COc1ccccc1Nc1nc(-c2c(C)nc3ncccn23)cs1", "Potency": "inconclusive: 20 µM [inhibitor, single point]"},
      {"smiles": "CC(C)(C)OC(=O)N(c1cccc2cccnc12)S(=O)(=O)c1ccccc1Br", "Potency": "inconclusive: 22.4 µM [inhibitor, single point]"}
    ]}
  ]
}
